Measured values taken from paper PMC10668032.
This is one part of the list. At the low end of the ranking the order means little.

These sequences were tested against SIX1 homeodomain (reference allele) (UniProt Q15475) (assay: universal protein binding microarray). Conditions: Universal all-10-mer PBM (8x60K, AMADID 030236), 300 nM GST-tagged protein, Alexa Fluor 488 anti-GST; buffer, salt, pH and temperature not stated; high values mean tight binding; most listed sequences are background and not binding sites; double strand, one strand shown.
CTTGAAGA was tested, and the binding signal was -0.316 E-score.
Sequence CGTCAAAA has a binding signal of -0.263 E-score.
For ACAAGCGG, the binding signal was -0.152 E-score.
In the case of CAAAAAAA, the binding signal was -0.169 E-score.
GATGGTCA showed a binding signal of -0.157 E-score.
Work on CCACGCGC yielded a binding signal of -0.232 E-score.
ATAAGAGC was tested, and the binding signal was 0.0501 E-score.
With AACCTACA the binding signal was -0.0886 E-score.
In the case of CACGATTA, the binding signal was 0.0546 E-score.
For CTCCGTAC, the binding signal was -0.0967 E-score.
For GAACCGGC, the binding signal was -0.142 E-score.
With ACTAAGCT the binding signal was -0.0652 E-score.
AACACTAC was tested, and the binding signal was -0.119 E-score.
CTAGCTCC was tested, and the binding signal was -0.122 E-score.
ACTAGCTC gave a binding signal of -0.0814 E-score.
TGTTGAAA gave a binding signal of -0.0615 E-score.
In the case of GCAGAGCC, the binding signal was -0.191 E-score.
Sequence CTCCTTCC has a binding signal of -0.0616 E-score.
ATAACCCG gave a binding signal of 0.126 E-score.
Work on GTGCTCCA yielded a binding signal of -0.105 E-score.
With CTGAGGAC the binding signal was -0.154 E-score.
Work on GAAGAGGC yielded a binding signal of -0.112 E-score.
AAATTGCT was tested, and the binding signal was -0.31 E-score.
For ATACTAAC, the binding signal was 0.243 E-score.
Sequence AAACACGT has a binding signal of -0.186 E-score.
GCATCAAA gave a binding signal of -0.118 E-score.
In the case of TGATCTAA, the binding signal was 0.14 E-score.
In the case of CTTCCAGA, the binding signal was -0.0823 E-score.
Sequence AACCCACG has a binding signal of -0.0638 E-score.
With AACGAGAA the binding signal was -0.135 E-score.
Sequence AGACGGTA has a binding signal of 0.196 E-score.
GCCAGACC showed a binding signal of -0.231 E-score.
AGGAGTCC showed a binding signal of -0.191 E-score.
Work on TGAACACA yielded a binding signal of -0.141 E-score.
For CAATTGAA, the binding signal was -0.141 E-score.
CCATCTCC gave a binding signal of 0.124 E-score.
Work on AGGATATC yielded a binding signal of 0.466 E-score.
In the case of AACACATT, the binding signal was -0.0749 E-score.
GCGCATAA showed a binding signal of -0.151 E-score.
Work on CGCCTCCA yielded a binding signal of -0.128 E-score.
With GAACACCA the binding signal was 0.0855 E-score.
Work on GCTGGCCA yielded a binding signal of -0.237 E-score.
For ATACAACA, the binding signal was 0.144 E-score.
ATGTAGAC gave a binding signal of -0.016 E-score.
With CAGGGCAG the binding signal was -0.0772 E-score.
With AGAGGTAT the binding signal was 0.399 E-score.
With CGCTCCAA the binding signal was 0.011 E-score.
ACGAACCT gave a binding signal of -0.14 E-score.
GCCCCCCC gave a binding signal of -0.126 E-score.
Work on CATCCAGG yielded a binding signal of -0.0372 E-score.
ACTGAGCG gave a binding signal of -0.0401 E-score.
With AAGAGGTC the binding signal was -0.0965 E-score.
Work on AAGCTGGA yielded a binding signal of 0.0264 E-score.
AACTGGAA gave a binding signal of -0.178 E-score.
ATCCGAAA was tested, and the binding signal was 0.246 E-score.
For ACCCAGAT, the binding signal was 0.338 E-score.
For AGTTGTAG, the binding signal was -0.134 E-score.
With ACCGCAGC the binding signal was -0.109 E-score.
TCCTAGGA gave a binding signal of 0.096 E-score.
Sequence AGCAGAAT has a binding signal of -0.0899 E-score.
Work on ACGTCTGA yielded a binding signal of 0.0308 E-score.
ATGATGGA was tested, and the binding signal was 0.0804 E-score.
TCTATGCA was tested, and the binding signal was 0.074 E-score.
GAGGGCGA gave a binding signal of -0.159 E-score.
ATAAGTGC showed a binding signal of -0.107 E-score.
CTGCCTGC showed a binding signal of -0.114 E-score.
Work on CTGGATGA yielded a binding signal of 0.0682 E-score.
In the case of AGGGCTTC, the binding signal was -0.215 E-score.
For ACAATCCG, the binding signal was 0.216 E-score.
GAGGGTGA showed a binding signal of -0.149 E-score.
For AGAAATAC, the binding signal was 0.0635 E-score.
AGAATGAA was tested, and the binding signal was -0.173 E-score.
With GCTCGTAA the binding signal was -0.0299 E-score.
For TCATGTAA, the binding signal was -0.0418 E-score.
Work on CTAAAAAG yielded a binding signal of -0.273 E-score.
CATGTGGG was tested, and the binding signal was -0.0538 E-score.
Sequence GACTATAC has a binding signal of 0.237 E-score.
CCCATGGC gave a binding signal of -0.0434 E-score.
In the case of CAATCCAA, the binding signal was -0.0072 E-score.
With GAGCTAGA the binding signal was 0.00693 E-score.
ACACAACG showed a binding signal of -0.0741 E-score.
Sequence ACTCTTCT has a binding signal of -0.00282 E-score.
For ATACGCAC, the binding signal was 0.254 E-score.
GACTAAAA gave a binding signal of -0.125 E-score.
Sequence GACGCCTA has a binding signal of -0.161 E-score.
ATGGGCGG showed a binding signal of 0.0993 E-score.
CCGTCTAG was tested, and the binding signal was 0.119 E-score.
Work on CACTCCAC yielded a binding signal of -0.162 E-score.
CGTCATAA was tested, and the binding signal was -0.0846 E-score.
GACACCCA gave a binding signal of 0.396 E-score.
For CTGCGTAC, the binding signal was -0.213 E-score.
CGGCGTCA showed a binding signal of -0.0319 E-score.
CTTAGGGA was tested, and the binding signal was -0.0384 E-score.
In the case of AAGTCACT, the binding signal was -0.337 E-score.
CCGTACAA showed a binding signal of -0.0215 E-score.
TGATCGAA gave a binding signal of 0.00534 E-score.
TACAACAA showed a binding signal of -0.0918 E-score.
AACTTGCG gave a binding signal of -0.215 E-score.
For CCTTCAGC, the binding signal was -0.284 E-score.
In the case of AGGGCTCA, the binding signal was 0.12 E-score.
Sequence GGGGTTTA has a binding signal of 0.148 E-score.
Work on AGATCGAC yielded a binding signal of 0.139 E-score.
GGGTTTCA was tested, and the binding signal was 0.179 E-score.
With CACGAATG the binding signal was 0.00522 E-score.
For AGAAAACT, the binding signal was -0.235 E-score.
Work on GCCCAGGC yielded a binding signal of -0.204 E-score.
CGGGCCCG was tested, and the binding signal was -0.295 E-score.
For CGATAAGC, the binding signal was 0.0138 E-score.
Work on TAATAGGA yielded a binding signal of 0.133 E-score.
AAGCTATA gave a binding signal of 0.0434 E-score.
GCACGAGC was tested, and the binding signal was 0.0515 E-score.
For GCTACGAA, the binding signal was -0.148 E-score.
ATTCAACG gave a binding signal of -0.117 E-score.
Sequence GAAGGGCA has a binding signal of -0.228 E-score.
For ATAGCTCG, the binding signal was 0.135 E-score.
ACTGTCAA showed a binding signal of -0.233 E-score.
CAATAGCG gave a binding signal of -0.0879 E-score.
Sequence ACGGGTTC has a binding signal of 0.0992 E-score.
For AGCAGGAA, the binding signal was -0.258 E-score.
Sequence AAACTGGA has a binding signal of 0.0258 E-score.
In the case of AAGCGCAC, the binding signal was -0.188 E-score.
In the case of AAAAAGCA, the binding signal was -0.297 E-score.
GATGGCCC showed a binding signal of -0.101 E-score.
Sequence ATCAATTC has a binding signal of 0.203 E-score.
AGAGAGCA was tested, and the binding signal was -0.146 E-score.
In the case of AAGAAGCT, the binding signal was -0.214 E-score.
AGAGTGGC gave a binding signal of -0.267 E-score.
AAAGATTT showed a binding signal of -0.207 E-score.
Sequence CACGCCAA has a binding signal of -0.108 E-score.
GCCCTTCC gave a binding signal of -0.271 E-score.
Work on ATTGGCAA yielded a binding signal of 0.0408 E-score.
With GCGATGCC the binding signal was -0.0705 E-score.
AGCCCTAA showed a binding signal of -0.14 E-score.
With ACCCCTAA the binding signal was -0.0467 E-score.
In the case of ACACTACG, the binding signal was -0.0301 E-score.
ACTAGAGT showed a binding signal of -0.123 E-score.
GGAACTAC was tested, and the binding signal was -0.291 E-score.
AGAATAGA gave a binding signal of -0.0228 E-score.
For CCTTCACA, the binding signal was -0.0651 E-score.
For GAAGGTAC, the binding signal was -0.105 E-score.
With CGGTGGGA the binding signal was -0.00609 E-score.
Sequence CTTAGCAC has a binding signal of -0.141 E-score.
CCAGGCAA showed a binding signal of -0.18 E-score.
Work on AGTTAGGG yielded a binding signal of -0.0206 E-score.
ACGTTATA was tested, and the binding signal was 0.141 E-score.
ATAACAGA gave a binding signal of 0.0319 E-score.
Work on ACTCAAGA yielded a binding signal of 0.00144 E-score.
CTATTGGC gave a binding signal of -0.134 E-score.
Sequence ATTACGCA has a binding signal of -0.0292 E-score.
Sequence GCTTGGCA has a binding signal of -0.218 E-score.
With AAGTGATC the binding signal was 0.391 E-score.
Sequence GATAAAGA has a binding signal of 0.13 E-score.
AAGGCGAG showed a binding signal of -0.116 E-score.
For AGTTAACC, the binding signal was -0.18 E-score.
Sequence CCTATCTA has a binding signal of 0.178 E-score.
For CACTGTCA, the binding signal was -0.138 E-score.
Sequence AACTTCGG has a binding signal of -0.236 E-score.
CCTTATAC gave a binding signal of 0.161 E-score.
In the case of AGTTCGCG, the binding signal was -0.0399 E-score.
ATGTCCGA was tested, and the binding signal was 0.0442 E-score.
AAAAATAT was tested, and the binding signal was 0.0842 E-score.
AATGCCGT was tested, and the binding signal was 0.0168 E-score.
With AATCGCTC the binding signal was -0.169 E-score.
CGGTCCAA gave a binding signal of -0.126 E-score.
Work on ACGAGGCA yielded a binding signal of -0.0999 E-score.
For ATCTAGTC, the binding signal was 0.0339 E-score.
For AGGACCTA, the binding signal was 0.0652 E-score.
Work on CCCCCCGG yielded a binding signal of 0.0234 E-score.
For GTCATCAC, the binding signal was -0.146 E-score.
With AATCGGAT the binding signal was 0.253 E-score.
Sequence AATCGCAG has a binding signal of -0.0685 E-score.
In the case of CATGCCAC, the binding signal was -0.0399 E-score.
